# According to the antibiotic and cytotoxicity screens of Wong et al. (2023):
# This is one part of the list.
# Test system: HSkMC (human skeletal muscle cells)
# Assay: cytotoxicity call (relative viability < 0.9)
# Settings: 10 µM
row,Compound,cytotoxicity call
1,C[C@H]1CN([C@@H](C)CO)C(=O)c2cccc(NC(=O)C3CCCCC3)c2O[C@H]1CN(C)Cc1ccc(Oc2ccccc2)cc1,inactive
2,CCS(=O)(=O)Nc1ccc2c(c1)C(=O)N(C)[C@H]1CC[C@@H](CC(=O)N[C@H]3CCN(Cc4ccccc4)C3)O[C@@H]1CO2,inactive
3,C[C@H]1CN([C@@H](C)CO)C(=O)c2cc(NS(=O)(=O)c3ccc(F)cc3)ccc2O[C@@H]1CN(C)S(=O)(=O)c1ccccc1,inactive
4,C[C@@H]1CCCCO[C@H](CN(C)C(=O)Nc2ccc(F)cc2)[C@@H](C)CN([C@@H](C)CO)C(=O)c2cc(NS(=O)(=O)c3cccs3)ccc2O1,inactive
5,C[C@@H]1CN([C@@H](C)CO)C(=O)c2cc(NS(=O)(=O)c3cn(C)cn3)ccc2O[C@H]1CN(C)CC1CC1,inactive
6,C[C@H](CO)N1C[C@H](C)[C@@H](CN(C)S(=O)(=O)c2cccs2)Oc2c(NC(=O)c3cnccn3)cccc2C1=O,inactive
7,O=C1O[C@@H](c2ccccc2)[C@@H](c2ccccc2)N2[C@@H](c3ccc(OCCO)cc3)[C@]3(C(=O)Nc4ccc(C#CC5(O)CCCCCC5)cc43)[C@@H](C(=O)N3CCCCCCC3)[C@H]12,inactive
8,COc1ccc(S(=O)(=O)Nc2ccc3c(c2)C(=O)N([C@@H](C)CO)C[C@@H](C)[C@H](CN(C)CC2CCCCC2)OCCCC[C@@H](C)O3)cc1,inactive
9,NNC(=O)c1cc(=S)nc[nH]1,inactive
10,COCC(=O)N(C)C[C@@H]1Oc2cc(C#CC(C)(C)O)ccc2S(=O)(=O)N([C@@H](C)CO)C[C@@H]1C,inactive
